This is an account of results in PubChem BioAssay AID463173 (ICCB-Longwood Screening Facility, Harvard Medical School, 2010).

Hit rate of the full screen: of about 52,000 compounds, about 1,700 (3.3%) were called active. Rule as the data show it: active = survival mostly below about 52% (no sharp cut-off); inactive = mostly above about 56%. This is one part of the list.

The test system of the experiment is Wild type. The experiment in a line: growth inhibition of S. aureus wild type versus tarO mutant, primary screen, teichoic acid synthesis inhibitors, RN4220, OD600 (AID 463173). Particulars: S. aureus RN4220 wild type/DeltatarO growth, OD600, 18 h, active compounds read low, screened at 18.75 µg/mL (by protocol).
As to `Cc1ccc(C)c(NC(=O)CSc2ccc3nc(-c4ccccc4)cn3n2)c1`, the survival is inactive: 138%.
The value for `CCOc1ccc(CCNC(=O)Cn2c(-c3cccs3)cc3ccccc32)cc1OCC` was inactive: 74%; that for `O=C(Nc1cccc(C(=O)OCc2cc(=O)n3nc(C4CC4)sc3n2)c1)c1cccc(Cl)c1` was inactive: 59%.
On to `COc1ccc(Nc2oc(/C=C/c3ccccc3OC)nc2C#N)cc1`, for which the survival was inactive: 86%.
On to `CCOc1ccc(NC(=O)c2cnc3sc(N4CCOCC4)nn3c2=O)cc1`, for which the survival is inactive: 113%.
As for `COc1cccc(N2CC(NC(=O)COc3ccccc3F)CC2=O)c1` (configuration not stated), the survival was inactive: 68%.
Turning to `O=C(Nc1ccccc1Br)c1cc(CN2CCCC2)on1`, the survival is inactive: 69%.
The value for `COc1cc(C(=O)NCCc2sc(-c3cccc(F)c3)nc2C)cc(OC)c1OC` was inactive: 74%.
`Cc1nc2cc(-c3cccc(F)c3)nn2c(C)c1CCC(=O)NC(C)c1ccccc1` (configuration not stated): the survival was inactive: 83%.
The value for `CS(=O)(=O)N(CCc1ccccc1)CC(=O)O` was inactive: 113%; that for `CCc1ccc(CNC(=O)c2ccc(-c3nc(CSc4ccc(C)cc4)c(C)o3)cc2)cc1` was inactive: 63%; that for `O=C(CSc1oc(-c2ccc(F)cc2)nc1S(=O)(=O)c1ccccc1)NC1CCCCC1` was inactive: 84%.
In the case of `CCSc1nnc(NC(=O)c2cc(=O)c3cc(C)ccc3o2)s1`, the survival was inactive: 83%.
As to `COC(=O)c1c(NC(=O)C2c3ccccc3Oc3ccccc32)sc2c1CCC(C(C)(C)C)C2` (configuration not stated), the survival was inactive: 88%.
As for `COc1cc2c(cc1NC(=O)c1ccccc1C)n(C)c(=O)n2C`, the survival is inactive: 63%.
Take `COc1cccc(CNC(=O)CCn2cnc3ccccc3c2=O)c1`: the survival was inactive: 73%.
The value for `COc1cccc(-c2cc(C(=O)NCc3ccc(F)cc3)no2)c1` was inactive: 71%.
Consider `COc1ccc(-c2nnc(SCC(=O)Nc3c(C)cccc3C)nc2-c2ccc(OC)cc2)cc1`, for which the survival was inactive: 105%.
Consider `CC(C)CNc1ncnc2onc(-c3ccc(Cl)cc3)c12`, for which the survival is inactive: 69%.
Turning to `CCOC(=O)c1ccc(NC(=O)c2oc3c(c2C)-c2nn(Cc4ccccc4Cl)cc2CC3)cc1`, the survival is inactive: 87%.
Consider `O=C(CCN1C(=O)c2ccccc2Sc2ncccc21)Nc1ccc(F)cc1`, for which the survival is inactive: 88%.
`CC(CCc1ccccc1)NC(=O)Cn1ncc2c3ccccc3n(Cc3ccccc3)c2c1=O` (configuration not stated): the survival is inactive: 89%.
Turning to `CCCC(=O)N1c2ccccc2-c2nnc(SC)nc2OC1c1sccc1C` (configuration not stated), the survival is inactive: 83%.
`CN(C(=O)c1ccccc1)c1nc(-c2ccccc2)cs1`: the survival is inactive: 111%.
As to `COc1ccc(S(=O)(=O)N2CCC(n3c(C)nc4cccnc43)CC2)cc1Cl`, the survival is inactive: 131%.
The value for `Cc1ccc(C)c(N2CCN(S(=O)(=O)c3cc(C(=O)Nc4ccccc4C(F)(F)F)ccc3F)CC2)c1` was inactive: 66%.
Regarding `CC(Oc1ccccc1)C(=O)Nc1c(C(=O)Nc2cccc(F)c2)oc2ccccc12` (configuration not stated), the survival was inactive: 57%.
As to `CN(C)c1ccc(CNC(=O)Cn2c(-c3cccs3)cc3cc(Cl)ccc32)cc1`, the survival was inactive: 72%.
For the compound `CCc1ccc(S(=O)(=O)Nc2cc3c(cc2C)n(C)c(=O)c(=O)n3C)cc1`, the survival is inactive: 57%.
On to `CCOC(=O)c1c(NC(=O)COc2ccc(Cl)cc2Cl)sc2c1CCCCC2`, for which the survival is inactive: 76%.
Take `Nc1c(-c2nc(-c3ccccc3Cl)no2)nnn1-c1ccccc1C(F)(F)F`: the survival is inactive: 110%.
The value for `CCC(C)[C@@H](C(=O)Nc1ccc(C)cc1)N1Cc2ccccc2C1=O` (some centres not stated) was inactive: 67%; that for `CC1=C(c2ccc(C)c(C)c2)S(=O)(=O)N=C1N1CCC(C(=O)NCc2ccc(N(C)C)cc2)CC1` was inactive: 57%.
For the compound `CCN(CC)S(=O)(=O)c1ccc(NC(=O)c2c(C)oc3ncnc(N4CCCCC4)c23)cc1`, the survival was inactive: 72%.
Turning to `C/C=C1\NC(=S)N(Cc2ccccc2)C1=O`, the survival is inactive: 101%.
Take `O=c1c2oc3ccccc3c2n(Cc2ccccc2F)c(=O)n1Cc1ccc2c(c1)OCO2`: the survival was inactive: 82%.
On to `Cc1n[nH]c(=S)n1CC(=O)n1c2c(c3ccccc31)CCCC2`, for which the survival was inactive: 110%.
Take `CCOC(=O)C1CCN(S(=O)(=O)c2ccccc2)CC1`: the survival is inactive: 111%.
As for `CCCn1c(N2CCN(C(=O)Nc3ccc(OC)cc3)CC2)nc2ccccc21`, the survival is inactive: 94%.
With `Cc1ccc(-c2nnc(SCC(=O)NCc3ccccc3)o2)cc1`, the survival is inactive: 130%.
Turning to `O=C(NCc1ccccc1)c1ccc(CS(=O)(=O)c2c(Cl)cccc2Cl)o1`, the survival was inactive: 71%.
The value for `COc1ccc(OC)c(CCNC(=O)CCCn2c(=O)c3cccn3c3cccnc32)c1` was inactive: 92%.
`CCOc1ccc(CNS(=O)(=O)c2ccc3c(c2)CC(C)N3C(C)=O)cc1OC` (configuration not stated): the survival was inactive: 70%.
For the compound `COc1ccc(CNC(=O)c2cnn(-c3ccccc3)c2-n2cccc2)cc1OC`, the survival was inactive: 126%.
On to `COc1ccc(N2CCN(C(=O)CSc3nc(-c4ccccc4)no3)CC2)cc1`, for which the survival was inactive: 89%.
The value for `Cc1ccc(NC(=O)Cn2nc(C)c3nn(-c4ccc(Cl)cc4)c(C)c3c2=O)cc1F` was inactive: 79%.
The value for `COc1ccc(-n2nc3c(N4CCC(C(=O)NC5CCCCC5)CC4)nnc(C)c3c2C)cc1` was inactive: 73%; that for `COc1ccc(-c2n[nH]c3c2C(c2ccccn2)N(C)C3=O)cc1` (configuration not stated) was inactive: 83%; that for `O=C1C2C(C(=O)N1c1ccccc1)N1CCCN1C2c1ccccc1` (configuration not stated) was inactive: 104%.
Take `O=C(CSc1nc(=O)[nH]c2c1CCC2)Nc1cc(C(F)(F)F)ccc1Cl`: the survival was inactive: 72%.
The value for `Cc1cccc(C(=O)Nc2ccc3nc(SCC(=O)N4CCCC4)sc3c2)c1` was inactive: 69%; that for `CCOC(=O)c1[nH]c(C)c(CCC(=O)N2CCN(c3cc(C)ccc3C)CC2)c1C` was inactive: 124%.
Regarding `Cc1ccc2oc(=O)c3cnn(CC(=O)N4CCN(c5cccc(Cl)c5)CC4)c3c2c1`, the survival is inactive: 89%.
Regarding `Cc1ccc(NC(=O)c2nc(S(=O)(=O)Cc3ccc(F)cc3)ncc2Cl)cc1C`, the survival is inactive: 104%.
Take `CCOc1ccc(OCC)c(NC(=O)CN(C)S(=O)(=O)c2ccc3[nH]c(=O)oc3c2)c1`: the survival was inactive: 87%.
Take `COc1cc(CNC(=O)c2ccc(NC(=O)N3CCCCc4ccccc43)cc2)cc(OC)c1OC`: the survival was inactive: 71%.
As for `Cc1cc(C(=O)NCCc2ccc(Cl)cc2)c2c(C)nn(-c3ccccc3)c2n1`, the survival is inactive: 90%.
